Data published in paper PMC2442059.
No constants are given. Whether binding was seen depends on the method and setting. Binding seen in cells or lysates may run through a third protein. Some results given as binding are weak or reduced against the parent protein; the word gives no strength.

Protein sequences, listed by entry. Tags and fused reporters are not part of them. Residues count along the entry.
UniProt P09055, residues 21-798: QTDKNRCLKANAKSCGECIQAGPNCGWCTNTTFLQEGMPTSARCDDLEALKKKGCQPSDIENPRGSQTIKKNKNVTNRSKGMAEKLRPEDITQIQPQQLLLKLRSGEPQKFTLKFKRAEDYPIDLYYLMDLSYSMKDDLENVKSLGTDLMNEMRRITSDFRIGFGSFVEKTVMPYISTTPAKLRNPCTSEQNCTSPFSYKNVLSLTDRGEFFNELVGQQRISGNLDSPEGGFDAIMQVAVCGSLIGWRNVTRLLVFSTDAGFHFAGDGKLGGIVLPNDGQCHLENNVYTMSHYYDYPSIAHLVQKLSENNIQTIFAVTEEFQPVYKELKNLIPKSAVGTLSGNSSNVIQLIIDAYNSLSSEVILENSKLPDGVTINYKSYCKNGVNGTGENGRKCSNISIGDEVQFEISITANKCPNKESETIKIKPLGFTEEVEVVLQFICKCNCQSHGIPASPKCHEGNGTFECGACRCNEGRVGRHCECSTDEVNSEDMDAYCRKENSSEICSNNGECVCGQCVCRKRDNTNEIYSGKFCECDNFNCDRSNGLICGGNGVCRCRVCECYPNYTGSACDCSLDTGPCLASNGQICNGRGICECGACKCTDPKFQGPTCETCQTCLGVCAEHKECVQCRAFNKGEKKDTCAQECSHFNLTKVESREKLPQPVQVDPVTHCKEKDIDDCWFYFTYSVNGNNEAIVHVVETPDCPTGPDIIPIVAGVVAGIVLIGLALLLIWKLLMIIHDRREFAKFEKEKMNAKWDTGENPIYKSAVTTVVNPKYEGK

Target: FLAG-tagged murine Integrin β1 (mouse) (UniProt P09055)
Test: co-IP; CHO cells transiently co-transfected, lysed after 48 h in 1% NP-40 STEN buffer (150 mM NaCl, 50 mM Tris, 2 mM EDTA); immunoprecipitated with M2 anti-FLAG agarose; western blot

B1: APLP1 (protein, UniProt P51693 39-650)
chain: SLAGGSPGAAEAPGSAQVAGLCGRLTLHRDLRTGRWEPDPQRSRRCLRDPQRVLEYCRQMYPELQIARVEQATQAIPMERWCGGSRSGSCAHPHHQVVPFRCLPGEFVSEALLVPEGCRFLHQERMDQCESSTRRHQEAQEACSSQGLILHGSGMLLPCGSDRFRGVEYVCCPPPGTPDPSGTAVGDPSTRSWPPGSRVEGAEDEEEEESFPQPVDDYFVEPPQAEEEEETVPPPSSHTLAVVGKVTPTPRPTDGVDIYFGMPGEISEHEGFLRAKMDLEERRMRQINEVMREWAMADNQSKNLPKADRQALNEHFQSILQTLEEQVSGERQRLVETHATRVIALINDQRRAALEGFLAALQADPPQAERVLLALRRYLRAEQKEQRHTLRHYQHVAAVDPEKAQQMRFQVHTHLQVIEERVNQSLGLLDQNPHLAQELRPQIQELLHSEHLGPSELEAPAPGGSSEDKGGLQPPDSKDDTPMTLPKGSTEQDAASPEKEKMNPLEQYERKVNASVPRGFPFHSSEIQRDELAPAGTGVSREAVSGLLIMGAGGGSLIVLSMLLLRRKKPYGAISHGVVEVDPMLTLEEQQLRELQRHGYENPTYRFLEERP
- binding: binds
